Results taken from the supplement of paper PMC3334620.
In all, about 33,000 sequences were measured (“E-score (-0.5 to 0.5)”: median about -0.032, highest 2% from about 0.36 on). Some of the results follow.

Each sequence was assayed against T1, Sko1 (UniProt Q02100) (assay: PBM E-score (8-mer binding enrichment) (E-score (-0.5 to 0.5)); higher = stronger / more preferred TF binding; most listed sequences are background and not binding sites). Conditions: protein concentration: 200 nM; construct: GST-full length.
T1 sequence: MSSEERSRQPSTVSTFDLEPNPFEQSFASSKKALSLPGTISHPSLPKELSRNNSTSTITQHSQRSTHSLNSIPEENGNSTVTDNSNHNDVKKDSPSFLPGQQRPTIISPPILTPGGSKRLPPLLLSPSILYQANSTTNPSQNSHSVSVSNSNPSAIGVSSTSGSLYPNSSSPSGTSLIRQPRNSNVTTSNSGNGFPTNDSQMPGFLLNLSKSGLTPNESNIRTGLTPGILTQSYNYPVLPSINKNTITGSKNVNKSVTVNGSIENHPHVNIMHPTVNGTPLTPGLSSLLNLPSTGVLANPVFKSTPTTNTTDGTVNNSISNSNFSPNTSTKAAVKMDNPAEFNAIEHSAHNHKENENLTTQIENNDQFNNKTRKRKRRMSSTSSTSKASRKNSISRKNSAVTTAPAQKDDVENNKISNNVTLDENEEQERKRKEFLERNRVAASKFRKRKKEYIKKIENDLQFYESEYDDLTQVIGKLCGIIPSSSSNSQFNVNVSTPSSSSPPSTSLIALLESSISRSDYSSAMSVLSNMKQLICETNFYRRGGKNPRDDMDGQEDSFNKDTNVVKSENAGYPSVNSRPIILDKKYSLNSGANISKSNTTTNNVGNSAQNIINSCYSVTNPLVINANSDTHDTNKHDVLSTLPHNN
In short: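 Each ungapped eight-base word and its reverse complement, pooled, received an E-score from the Universal PBM Analysis Suite. Underlying scans, normalised with masliner, recorded fluorescent anti-GST bound to GST-tagged yeast transcription factors. These were applied at about 100-200 nM to universal all-10-mer Agilent arrays double-stranded by primer extension.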

| Sequence | PBM E-score |
| --- | --- |
| CACAGGCC | -0.24 |
| GGGCACAC | -0.141 |
| ACCCTTTA | 0.0342 |
| AGCCCCCC | -0.355 |
| ACGGCAAA | 0.0363 |
| CAATATCG | 0.0717 |
| ATTATAAG | 0.147 |
| GCTTAGGA | -0.201 |
| CGGAGCCA | -0.319 |
| CCATTACA | 0.089 |
| GAGGGCAC | -0.279 |
| CATCGTGC | 0.116 |
| CCTATGCG | 0.00492 |
| AACCGTCG | -0.0293 |
| ATCCCGCA | -0.0927 |
| GTCCTTGA | -0.035 |
| AAAAGCGA | 0.0693 |
| AACCCCCC | -0.417 |
| ATGCCCCC | -0.235 |
| CGCAGAGC | -0.13 |
| CTAACTGC | -0.0657 |
| GCATCTTA | 0.0858 |

| Sequence | PBM E-score |
| --- | --- |
| ACCTACAG | -0.146 |
| CTCCGTGA | -0.112 |
| CATCAAGG | -0.0767 |
| GTACTAAC | 0.166 |
| CCAATTAC | 0.275 |
| AATGGTAG | 0.0473 |
| GACCACAA | -0.165 |
| GTCGCTGA | 0.0246 |
| ACATACAG | 0.248 |
| GAGACTAC | -0.0885 |
| CCGAAAAC | 0.0533 |
| AAGACTGA | 0.0273 |
| CAGAACGC | -0.0689 |
| GAACCCGA | -0.121 |
| GCACTACC | -0.0837 |
| AAAAGAAA | 0.17 |
| AGGTAACA | 0.127 |
| GAATGAAC | 0.142 |
| GCAATCCC | -0.0317 |
| AAGCAGCG | -0.0423 |
| ACAGTCGA | -0.154 |
| CTGTTCTC | -0.106 |

| Sequence | PBM E-score |
| --- | --- |
| CGCGAACC | -0.0595 |
| ATTCCTGC | 0.0663 |
| AAGTTTTC | 0.107 |
| CGACAAAG | 0.0583 |
| CAAATCTA | 0.0876 |
| GAGTCTCC | -0.211 |
| CCCTCGGC | -0.273 |
| GCAAACAC | 0.137 |
| AAAGTCCT | -0.124 |
| ACGCAAAG | 0.276 |
| GTGTCTAA | 0.065 |
| ACGACTTG | -0.058 |
| GTCCTATA | -0.0251 |
| CATGAAGA | 0.0179 |
| AAGGGAGT | -0.101 |
| AACGTGGA | 0.237 |
| CGACGATA | 0.0441 |
| AAATGCAA | 0.0414 |
| AGACGAAG | -0.101 |
| AGTTCTGA | 0.102 |
| CGCGTATC | 0.232 |
| AGGTAATC | 0.163 |

| Sequence | PBM E-score |
| --- | --- |
| ATTCCGGG | -0.266 |
| ATAAGACA | 0.183 |
| TGGGAACA | -0.247 |
| CAACTTCA | 0.127 |
| AAAGGGCA | -0.146 |
| CTGCTTAC | 0.0487 |
| AGCCCACG | 0.209 |
| ACAACAGC | 0.00163 |
| ATCAATCC | 0.125 |
| AAATATTA | 0.295 |
| ACGAGGTA | -0.0524 |
| CCGTCGAA | -0.0246 |
| CCCCATAG | -0.244 |
| GTGGACAC | -0.0425 |
| CCGATTGC | 0.0694 |
| CATATTTC | 0.12 |
| CGTTCCCA | -0.0769 |
| CAACAATG | 0.0609 |
| ATAGTCCA | -0.117 |
| AGCATCAG | -0.181 |
